# Data from PubChem BioAssay (NCATS).
# The inconclusive results got no clear call from the source; some entries with a clear call stand among them for comparison. For some assays here: No potency is given beside an inconclusive call; the fits are too rough. Active and inactive are the calls of the source. Unless noted, the call rests on the fitted dose curve; in most records, active means well fitted curve in the direction sought with a large enough effect; inconclusive means small, poorly fitted or top-dose-only effect, or another doubt; inactive means no such curve, though single readings can be large; an effect the other way counts as inactive or inconclusive.
# How the values were obtained:
# [1] = qHTS of pediatric cancer cell lines to identify multiple opportunities for drug repurposing: Primary screen for SJ-GBM2 cells (AID 1347091); further: potency means the concentration at half of the fitted maximal effect
# In short: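 Cell viability, CellTiter-Glo luminescence; 500-1,000 cells/well, 8- or 11-point titration, 48 h compound exposure at 37 degrees C, 5% CO2. Controls: DMSO neutral, bortezomib 2.3 µM final as positive.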
# [2] = qHTS of pediatric cancer cell lines to identify multiple opportunities for drug repurposing: Primary screen for A673 cells (AID 1347092); conditions: A673 Ewing sarcoma viability, CellTiter-Glo ATP luminescence, 48 h; activity change, negative = cytotoxic: at 46 µM (top of the series); further: potency means the concentration at half of the fitted maximal effect; nearly all actives have a fitted effect of over 45% in size
# In short: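 Cells are plated, rested 5 h, dosed by pintool, incubated 48 h, then lysed with CellTiter-Glo and read by luminescence. DMSO is the neutral control; bortezomib at 2.3 uM final is the positive control.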
# [3] = qHTS of pediatric cancer cell lines to identify multiple opportunities for drug repurposing: Primary screen for SK-N-MC cells (AID 1347093); conditions: SK-N-MC viability, CellTiter-Glo luminescence, 48 h; activity change, negative = cytotoxic: at 46 µM (top of the series); further: potency means the concentration at half of the fitted maximal effect
# In short: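 Metabolically active cells were quantified by ATP-dependent luminescence (CellTiter-Glo, 15 min at room temperature) following 48 h treatment. Cells had been plated at 500-1,000 per well and settled for 5 h beforehand.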
# [4] = qHTS of pediatric cancer cell lines to identify multiple opportunities for drug repurposing: Primary screen for NB-EBc1 cells (AID 1347095); further: potency means the concentration at half of the fitted maximal effect
# In short: (§1)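 ATP-based luminescence (CellTiter-Glo) quantifies viability after a 48-hour exposure. Compounds are dosed across 8 or 11 final concentrations; DMSO and 2.3 µM bortezomib serve as controls.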
# [5] = qHTS of pediatric cancer cell lines to identify multiple opportunities for drug repurposing: Primary screen for Saos-2 cells (AID 1347097); conditions: Saos-2 viability, CellTiter-Glo ATP luminescence, 48 h; activity change, negative = cytotoxic: at 46 µM (top of the series); further: potency means the concentration at half of the fitted maximal effect; nearly all actives have a fitted effect of over 40% in size
# In short: as §1
# [6] = qHTS of pediatric cancer cell lines to identify multiple opportunities for drug repurposing: Primary screen for NB1643 cells (AID 1347099); further: nearly all actives have a fitted effect of over 50% in size; further: potency means the concentration at half of the fitted maximal effect
# In short: as §1
# [7] = qHTS of pediatric cancer cell lines to identify multiple opportunities for drug repurposing: Primary screen for OHS-50 cells (AID 1347103); further: potency means the concentration at half of the fitted maximal effect; nearly all actives have a fitted effect of over 40% in size
# In short: (§2)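 Cells (500-1,000/well) rested 5 h, then received compounds for 48 h; metabolically active cells were measured by CellTiter-Glo luminescence. Final concentrations spanned up to 46 µM (MIPE, 11-point) or 0.59 nM-46 µM (NPC, 8-point) in primary screens, 11-point in follow-ups.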
# [8] = Primary qHTS for small molecule stabilizers of the endoplasmic reticulum resident proteome: Secreted ER Calcium Modulated Protein (SERCaMP) assay (AID 1508630); conditions: SH-SY5Y GLuc-SERCaMP (Gaussia luciferase released on ER calcium loss) secretion, thapsigargin, luminescence; series mostly up to 38.4 µM; further: potency means the concentration at half of the fitted maximal effect
# In short: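 The SH-SY5Y reporter protocol was run at 3 concentrations up to 38.3 uM (primary) or 11 concentrations (follow-up): 16 h compound, 100 nM thapsigargin for 4 h, then extracellular luciferase luminescence.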
# MKL-1 = test: qHTS assay to identify novel small-molecules to repurpose for Merkel cell carcinoma treatment (AID 1296009); conditions: MCC and control cell lines, CellTiter-Glo viability, 72 h; activity change, negative = cytotoxicity: at 46 µM (top of the series); further: nearly all actives have a fitted effect of over 60% in size; further: potency means the concentration at half of the fitted maximal effect
# In short: (§3)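 Cell viability measured by CellTiter-Glo following 72 hr compound treatment at 37 degree celsius, with NPC and MIPE libraries tested in 8- and 11-point concentration series.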
# UISO = test: as above; conditions: MCC and control cell lines, CellTiter-Glo viability, 72 h; activity change, negative = cytotoxicity: at 46 µM (top of the series)
# In short: as §3
# [9] = qHTS of pediatric cancer cell lines to identify multiple opportunities for drug repurposing: Primary screen for BT-12 cells (AID 1347101); further: potency means the concentration at half of the fitted maximal effect; nearly all actives have a fitted effect of over 25% in size
# In short: as §2
# [10] = molecular target: Cytochrome P450 2D6 (Homo sapiens) (UniProt P10635); test: Cytochrome P450 family 2 subfamily D member 6 (CYP2D6) small molecule antagonists: luciferase biochemical (cell-free) qHTS assay (AID 1645840; active means well fitted curve in the direction sought with a large enough effect in the repeat runs; inconclusive means weak or mixed curves; inactive means no such curve, though single readings can be large; an effect the other way counts as inactive or inconclusive; further: nearly all actives have a fitted effect of over 55% in size; further: potency means the concentration at half of the fitted maximal effect)
# In short: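 P450-Glo CYP2D6 system: proluciferin substrate converted by enzyme to luciferin, read by luminescence proportional to activity. Enzyme-substrate mix with compound 10 min at room temperature, then NADPH regeneration 1 h before detection reagent.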
# [11] = molecular target: Cytochrome P450 2C9 (Homo sapiens) (UniProt P11712); test: Cytochrome P450 family 2 subfamily C member 9 (CYP2C9) small molecule antagonists: luciferase biochemical (cell-free) qHTS assay (AID 1645842; active means well fitted curve in the direction sought with a large enough effect in the repeat runs; inconclusive means weak or mixed curves; inactive means no such curve, though single readings can be large; an effect the other way counts as inactive or inconclusive; further: potency means the concentration at half of the fitted maximal effect; nearly all actives have a fitted effect of over 55% in size)
# In short: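 P450-Glo CYP2C9 system: proluciferin substrate with enzyme in mix containing 0.4% BSA, 10 min at room temperature, then NADPH regeneration solution added and incubated 1 h at 37C. Detection reagent stopped reaction; luminescence read after 20 min as RLU.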
# [12] = qHTS of pediatric cancer cell lines to identify multiple opportunities for drug repurposing: Primary screen for BT-37 cells (AID 1347094); further: potency means the concentration at half of the fitted maximal effect
# In short: as §1
# WaGa = test: qHTS assay to identify novel small-molecules to repurpose for Merkel cell carcinoma treatment (AID 1296009); conditions: MCC and control cell lines, CellTiter-Glo viability, 72 h; series mostly up to 46 µM; further: nearly all actives have a fitted effect of over 60% in size; further: potency means the concentration at half of the fitted maximal effect
# In short: as §3
# [13] = tested on: Zika virus NS2B-NS3 protease (linked construct); test: Primary screen NINDS Rhodamine qHTS for Zika virus inhibitors (AID 1347160); further: nearly all actives have a fitted effect of over 55% in size
# In short: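 Each compound, titrated, sat 15 min with 25 nM linked protease before 1.5 microM Rhodamine110 substrate went in. Fluorescence gain over the next 15 min, in pH 8.0 Tris with Tween 20, gave Hill-fitted curves.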
# [14] = A High-Content qHTS Against Drug Library for the Identification of Small Molecules that Inhibit DYT1 Early Onset Primary Dystonia-Associated Cell Pathology (AID 1645839; calls by dose curve; further: potency means the concentration at half of the fitted maximal effect)
# In short: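 High-content imaging quantified EGFP-TorsinA mislocalization in HEK293-derived cells inducibly expressing DYT1 mutant torsinA, after 48 h exposure to compound given together with tetracycline induction. Cell count served as a toxicity channel alongside %pathology.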
# [15] = qHTS of pediatric cancer cell lines to identify multiple opportunities for drug repurposing: Primary screen for Rh18 cells (AID 1347102); further: potency means the concentration at half of the fitted maximal effect; nearly all actives have a fitted effect of over 65% in size
# In short: as §2
# Tags describe the fitted curve by direction and shape.
# UniProt P10635, sequence (P10635 whole entry, looked up): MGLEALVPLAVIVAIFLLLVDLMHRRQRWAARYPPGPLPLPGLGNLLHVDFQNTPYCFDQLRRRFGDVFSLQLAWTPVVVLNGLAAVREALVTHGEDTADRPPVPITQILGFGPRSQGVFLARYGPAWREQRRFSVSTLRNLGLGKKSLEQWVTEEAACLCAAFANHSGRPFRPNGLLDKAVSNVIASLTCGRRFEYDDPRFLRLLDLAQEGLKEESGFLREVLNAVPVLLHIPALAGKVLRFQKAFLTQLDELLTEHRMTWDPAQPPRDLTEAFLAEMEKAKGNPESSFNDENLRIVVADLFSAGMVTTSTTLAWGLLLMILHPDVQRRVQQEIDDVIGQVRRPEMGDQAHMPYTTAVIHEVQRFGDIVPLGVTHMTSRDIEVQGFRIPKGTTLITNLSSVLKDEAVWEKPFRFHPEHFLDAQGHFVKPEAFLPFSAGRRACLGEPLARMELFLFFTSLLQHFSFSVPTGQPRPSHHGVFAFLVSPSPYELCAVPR
# UniProt P11712, sequence (P11712 whole entry, looked up): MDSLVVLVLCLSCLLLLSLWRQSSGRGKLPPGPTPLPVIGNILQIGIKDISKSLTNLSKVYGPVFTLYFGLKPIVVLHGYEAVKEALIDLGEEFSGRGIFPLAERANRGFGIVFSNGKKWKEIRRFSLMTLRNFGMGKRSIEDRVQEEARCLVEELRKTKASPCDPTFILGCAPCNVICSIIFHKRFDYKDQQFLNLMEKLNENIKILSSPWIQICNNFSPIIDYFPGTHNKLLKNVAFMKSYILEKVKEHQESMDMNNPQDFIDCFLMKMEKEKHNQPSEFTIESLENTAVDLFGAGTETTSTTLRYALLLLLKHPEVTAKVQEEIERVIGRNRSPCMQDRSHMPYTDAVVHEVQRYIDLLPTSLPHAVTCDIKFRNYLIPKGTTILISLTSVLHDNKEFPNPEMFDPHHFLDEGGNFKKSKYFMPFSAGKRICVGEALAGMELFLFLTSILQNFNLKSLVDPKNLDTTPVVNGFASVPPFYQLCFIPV
structure (smiles),measurement,setting,value
CC(C)(C)c1nc2c3cc[nH]c(=O)c3c3cc(F)ccc3c2[nH]1,Potency,[1],"inconclusive [cytotoxic, full curve]"
same,Potency,[2],"inconclusive [cytotoxic, full curve]"
same,Potency,[3],active: 1.18 µM
same,Potency,[4],inactive
same,Potency,[5],"inconclusive [cytotoxic, full curve, poor fit]"
same,Potency,[6],"inconclusive [cytotoxic, full curve]"
same,Potency,[7],"inconclusive [cytotoxic, full curve]"
same,Potency,[8],inactive
same,Potency,MKL-1,inactive
same,Potency,UISO,"inconclusive [inhibitor, full curve]"
CC(=O)[C@@]1(O)CC[C@H]2[C@@H]3C[C@H](C)C4=CC(=O)CC[C@]4(C)[C@H]3CC[C@@]21C,Potency,[3],"inconclusive [cytotoxic, single point]"
same,Potency,[6],inactive
same,Potency,[9],"inconclusive [cytotoxic, partial curve, poor fit]"
same,Potency,[8],inactive
same,Potency,[10],inactive
same,Potency,[11],"inconclusive [inhibitor, single point]"
O=C(c1cc(O)c(O)c(O)c1)c1ccc(O)c(O)c1O,Potency,[2],"inconclusive [cytotoxic, partial curve, poor fit]"
same,Potency,[3],"inconclusive [cytotoxic, single point]"
same,Potency,[12],"inconclusive [cytotoxic, single point]"
same,Potency,[4],inactive
same,Potency,[9],"inconclusive [cytotoxic, partial curve, poor fit]"
same,Potency,[7],active: 24.6 µM
same,Potency,[8],"inconclusive [inhibitor, single point]"
same,Potency,[10],"inconclusive [inhibitor, single point]"
same,Potency,MKL-1,"inconclusive [inhibitor, single point]"
same,Potency,WaGa,"inconclusive [inhibitor, single point]"
C=CCCN1CCC2(CC1)CN(C(=O)c1c(F)cccc1F)c1ccc(Cl)cc12,Potency,[13],inactive
same,Potency,[11],active: 13.5 µM
O=C(CCC1CCN(Cc2ccccc2)CC1)c1ccc2c(c1)NCCCC2,Potency,[1],"inconclusive [cytotoxic, partial curve]"
same,Potency,[2],"inconclusive [cytotoxic, single point]"
same,Potency,[3],"inconclusive [cytotoxic, single point]"
same,Potency,[12],"inconclusive [cytotoxic, partial curve]"
same,Potency,[9],"inconclusive [cytotoxic, partial curve]"
same,Potency,[13],inactive
same,Potency,[8],"inconclusive [inhibitor, single point]"
same,Potency,[14],"inconclusive [inhibitor, single point]"
same,Potency,MKL-1,inactive
CC(=O)ON=C1C(c2c(O)[nH]c3cc(Br)ccc23)=Nc2ccccc21,Potency,[1],active: 2.96 µM
same,Potency,[2],"inconclusive [cytotoxic, full curve, poor fit]"
same,Potency,[12],active: 6.11 µM
same,Potency,[4],active: 5.26 µM
same,Potency,[6],active: 16.6 µM
same,Potency,[15],"inconclusive [cytotoxic, full curve]"
same,Potency,[7],"inconclusive [cytotoxic, partial curve, poor fit]"
same,Potency,[8],"inconclusive [inhibitor, single point]"
same,Potency,MKL-1,"inconclusive [inhibitor, full curve]"
same,Potency,UISO,"inconclusive [inhibitor, full curve, poor fit]"
same,Potency,WaGa,"inconclusive [inhibitor, full curve]"
CC(C)N=C(N)/N=C(\N)Nc1ccc(Cl)cc1,Potency,[1],inactive
same,Potency,[2],"inconclusive [cytotoxic, single point]"
same,Potency,[12],inactive
same,Potency,[5],"inconclusive [cytotoxic, single point]"
same,Potency,[9],"inconclusive [cytotoxic, partial curve, poor fit]"
same,Potency,[15],"inconclusive [cytotoxic, single point]"
same,Potency,[7],"inconclusive [cytotoxic, single point]"
same,Potency,[8],"inconclusive [inhibitor, partial curve, poor fit]"
same,Potency,[14],"inconclusive [inhibitor, partial curve, poor fit]"
same,Potency,UISO,"inconclusive [inhibitor, single point]"
same,Potency,WaGa,"inconclusive [inhibitor, partial curve, poor fit]"
